Measurements reported in PMC4336329 (PLoS ONE, 2015).
The campaign covered roughly 310,000 compounds. About 14,000 (4.5%) showed an effect of 50% or more. The effect is printed as a negative number. The list shows a part of the results.

Biological target: human ether-à-go-go-related gene (hERG) potassium channel (human, UniProt Q12809)
Assay: primary screen, population patch clamp on CHO cells stably expressing hERG
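Further: peak tail current of the secondary pulse compared with the same well before compound.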

Chain of human ether-à-go-go-related gene (hERG) potassium channel (Q12809 whole entry, looked up): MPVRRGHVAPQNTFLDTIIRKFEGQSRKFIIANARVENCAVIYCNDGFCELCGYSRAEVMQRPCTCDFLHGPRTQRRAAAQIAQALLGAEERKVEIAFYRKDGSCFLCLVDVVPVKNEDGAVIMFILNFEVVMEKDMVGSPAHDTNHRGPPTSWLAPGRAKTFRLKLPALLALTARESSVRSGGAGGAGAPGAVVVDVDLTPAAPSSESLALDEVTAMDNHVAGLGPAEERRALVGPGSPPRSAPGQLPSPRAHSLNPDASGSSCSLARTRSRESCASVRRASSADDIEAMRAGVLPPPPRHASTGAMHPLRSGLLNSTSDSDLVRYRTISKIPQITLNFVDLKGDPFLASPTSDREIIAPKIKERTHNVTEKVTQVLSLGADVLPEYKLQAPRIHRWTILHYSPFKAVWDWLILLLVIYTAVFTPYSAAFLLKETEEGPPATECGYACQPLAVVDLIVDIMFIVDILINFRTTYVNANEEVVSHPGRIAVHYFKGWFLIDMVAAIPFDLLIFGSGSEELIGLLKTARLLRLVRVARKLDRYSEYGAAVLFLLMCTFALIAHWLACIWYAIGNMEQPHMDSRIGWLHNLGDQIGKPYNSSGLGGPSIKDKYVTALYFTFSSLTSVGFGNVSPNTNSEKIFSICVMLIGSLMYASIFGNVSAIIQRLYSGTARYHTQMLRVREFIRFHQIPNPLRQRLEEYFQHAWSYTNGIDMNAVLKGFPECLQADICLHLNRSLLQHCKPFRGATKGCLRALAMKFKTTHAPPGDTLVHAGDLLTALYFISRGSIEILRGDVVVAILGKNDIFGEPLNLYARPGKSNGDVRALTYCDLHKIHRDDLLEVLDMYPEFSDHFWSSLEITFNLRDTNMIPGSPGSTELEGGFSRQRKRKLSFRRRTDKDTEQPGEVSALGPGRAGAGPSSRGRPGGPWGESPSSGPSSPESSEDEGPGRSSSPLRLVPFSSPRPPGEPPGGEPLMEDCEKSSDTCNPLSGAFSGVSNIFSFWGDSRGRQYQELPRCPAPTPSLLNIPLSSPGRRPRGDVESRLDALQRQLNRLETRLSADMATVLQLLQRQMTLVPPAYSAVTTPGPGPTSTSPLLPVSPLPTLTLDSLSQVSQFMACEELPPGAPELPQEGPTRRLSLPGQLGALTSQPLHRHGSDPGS

Going from `COc1ccc(-c2c(-c3ccc(O)cc3O)n[nH]c2C)cc1OC` to `COc1ccc(CCNC(=O)Nc2ccc3c(c2)OCO3)cc1OC`, the “hERG current change (%, negative = inhibition) at 10uM” value rises from -20.9% to 18.8%.

Compared with `O=C(CCc1nnc(CCCCc2ccccc2)o1)NC1CCCC1`, `Cc1ccc2ccccc2c1NC(=O)CNC1CCCCC1.[O-][Cl+3]([O-])([O-])O` is higher in “hERG current change (%, negative = inhibition) at 10uM” value: -1.55% for the first, 0.514% for the second.

First: Cc1nc(Cc2nnc(SCC(=O)N3CCN(c4ccc(F)cc4)CC3)o2)cs1
Second: COc1ccc(CC(=O)N2CCN(c3ccccc3)CC2)cc1OC
The “hERG current change (%, negative = inhibition) at 10uM” value of the first is lower: -50.9% for the first, 18.4% for the second.

Going from `CC1(C)CC(=O)c2c(O)cc(OCC(=O)Nc3ccc(S(N)(=O)=O)cc3)cc2O1` to `O=C1COc2ccc(C(=O)COC(=O)c3cc(S(=O)(=O)NCc4ccccc4)ccc3O)cc2N1`, the “hERG current change (%, negative = inhibition) at 10uM” value falls from -4.04% to -4.76%.

Compared with `CC(C)NC(=O)c1onc(CSc2ccc(F)c(F)c2)c1C(=O)O`, `Cc1onc(-c2c(F)cccc2Cl)c1C(=O)OCC(=O)NC(=O)NCC(C)C` is higher in “hERG current change (%, negative = inhibition) at 10uM” value: 5.75% for the first, 24.2% for the second.

First: COc1ccc2c(c1OC)C(=O)OC2
Second: COc1ccc(CN(C)C(=O)c2cnc(C)cn2)c(OC)c1OC
The “hERG current change (%, negative = inhibition) at 10uM” value of the first is lower: 15.1% for the first, 24.5% for the second.

Compared with `COc1ccc(CCNC(=O)c2nnn(CC(=O)Nc3c(C)cc(C)cc3C)c2N)cc1OC`, `COc1ccc([N+](=O)[O-])cc1NC(=O)c1cc(C)c(C)o1` is higher in “hERG current change (%, negative = inhibition) at 10uM” value: 6.67% for the first, 7.62% for the second.

First: CCCC(C)NC(=O)c1nc(-c2ccccc2)n(-c2ccccc2)n1 (centres unmarked)
Second: CCn1c(-c2ccccc2)c(C(=O)CCl)c2ccccc21
The “hERG current change (%, negative = inhibition) at 10uM” value of the first is lower: -55.7% for the first, 19.7% for the second.

First: Cc1cccc(Cn2c(N3CCN(C)CC3)nc3c2c(=O)[nH]c(=O)n3C)c1
Second: Cc1ccc2c(c1)N(CC(=O)N1CCCC1)C(=O)c1cccnc1O2
The “hERG current change (%, negative = inhibition) at 10uM” value of the first is lower: -50.7% for the first, 10.8% for the second.

Going from `NNC(=O)c1cc(S(=O)(=O)N2CCOCC2)c[nH]1` to `O=C(Nc1ccc(N2CCOCC2)nc1)c1cccs1`, the “hERG current change (%, negative = inhibition) at 10uM” value rises from 2.49% to 3.15%.

First: Cc1ccc(CNCc2ccccc2Cl)cc1.Cl
Second: Cc1ccc(Cn2cc(-c3ccccc3)nn2)cc1
The “hERG current change (%, negative = inhibition) at 10uM” value of the first is lower: -7.02% for the first, 17.2% for the second.

Going from `CN1CCN(C(CNS(=O)(=O)c2cccs2)c2cccnc2)CC1` (centres unmarked) to `O=C(c1ccc(Cl)nc1)N1CCN(S(=O)(=O)c2ccccc2)CC1`, the “hERG current change (%, negative = inhibition) at 10uM” value rises from -21.4% to -3.95%.

First: COc1ccc(C)cc1NCC(=O)Nc1ccc(C(C)(C)C)cc1
Second: Cc1ccc(OCCC(=O)Nc2ccc(F)c(F)c2)cc1
The “hERG current change (%, negative = inhibition) at 10uM” value of the first is higher: 9.01% for the first, -5.62% for the second.

First: COc1ccc(C)cc1S(=O)(=O)N1CCCC(C(=O)NCc2ccccn2)C1 (centres unmarked)
Second: COc1ccc(/C=C2\SC(=O)N(CCNC(=O)C3CC(=O)N(c4ccccc4)C3)C2=O)cc1 (centres unmarked)
The “hERG current change (%, negative = inhibition) at 10uM” value of the first is higher: -2.73% for the first, -21.9% for the second.

Going from `CCc1ccc(NC(=O)CSc2nc3ccccc3c(=O)n2CCCN2CCC(C)CC2)cc1` to `CCN1CCN(CCCNC(=O)Cn2nc(C)n3nc(-c4ccccc4)cc3c2=O)CC1`, the “hERG current change (%, negative = inhibition) at 10uM” value rises from -67.2% to -11.1%.

Going from `Cc1ccc(SCc2nc(-c3ccccc3)no2)cc1` to `COn1c(-c2ccccc2)nc2ncccc21`, the “hERG current change (%, negative = inhibition) at 10uM” value rises from 2.3% to 19.1%.

Going from `NS(=O)(=O)c1ccc(CNC(=O)Cc2ccccc2[N+](=O)[O-])cc1` to `Nc1ccc(C(=O)NNC(=O)C2COc3ccccc3O2)cc1[N+](=O)[O-]` (centres unmarked), the “hERG current change (%, negative = inhibition) at 10uM” value falls from 17.8% to -43.1%.

First: O=C1/C(=C/c2ccncc2)SC(=S)N1C1CCS(=O)(=O)C1 (centres unmarked)
Second: O=C(O)CCCCCN1C(=O)/C(=C\c2cn(-c3ccccc3)nc2-c2cccs2)SC1=S
The “hERG current change (%, negative = inhibition) at 10uM” value of the first is lower: 4.52% for the first, 9.26% for the second.

First: CCN(CC)CCOC(=O)c1ccc(Cl)cc1.Cl
Second: CC(C)=CC(=O)OCC(=O)Nc1ccc(Cl)cc1
The “hERG current change (%, negative = inhibition) at 10uM” value of the first is lower: -42.7% for the first, -22.9% for the second.

Going from `Cc1ccc2c(c1)CCCN2C(=O)c1ccoc1C` to `CCC(=O)N1CCc2cc(S(=O)(=O)CCC(=O)N3CCN(c4ccccc4F)CC3)ccc21`, the “hERG current change (%, negative = inhibition) at 10uM” value rises from -7.85% to 3.11%.

Compared with `CCOC(=O)CCc1c(C)c(C#N)c2nc3ccccc3n2c1-n1ccnc1C`, `COC(CNC(=O)c1ccc2c(c1)nc(C)n2-c1cccc(C)c1)OC` is higher in “hERG current change (%, negative = inhibition) at 10uM” value: -45.2% for the first, 0.933% for the second.

First: Cc1ccccc1C(=O)Nc1cccc(-c2ccc3nncn3n2)c1
Second: Cn1c(SCC(=O)Nc2ccccc2-c2ccccc2)nnc1-c1ccco1
The “hERG current change (%, negative = inhibition) at 10uM” value of the first is higher: -2.94% for the first, -46.1% for the second.

Going from `Cc1nn(-c2ccccc2)c2c1C(c1ccc3c(c1)OCO3)SCC(=O)N2` (centres unmarked) to `CN1CC(=O)N(CC(=O)NCc2ccc3c(c2)OCO3)C1=O`, the “hERG current change (%, negative = inhibition) at 10uM” value rises from -9.35% to -5.9%.

First: O=C(Cc1ccccc1)Nc1ccccc1N1CCCC1
Second: CS(=O)(=O)N1CCN(c2ccccc2NC(=O)c2ccc3ccccc3c2)CC1
The “hERG current change (%, negative = inhibition) at 10uM” value of the first is higher: 9.76% for the first, -8.76% for the second.

First: CCOc1ccc(C(=O)COC(=O)c2cccc(-n3cnnn3)c2)cc1
Second: CCOc1ccc(N(CC(=O)Nc2cccnc2)S(C)(=O)=O)cc1
The “hERG current change (%, negative = inhibition) at 10uM” value of the first is lower: -23.8% for the first, -20.7% for the second.

Compared with `C=CCN1CC[C@]23c4c5ccc(O)c4O[C@H]2/C(=N/NC(=O)c2ccccc2)CC[C@@]3(O)[C@H]1C5`, `COc1ccc(C(=O)NC2CCCc3ccccc32)cc1` (centres unmarked) is higher in “hERG current change (%, negative = inhibition) at 10uM” value: -69.1% for the first, -7.74% for the second.

First: CCCn1c2c(c(O)c(C(=O)Nc3nccs3)c1=O)CCCC2
Second: COCCn1c(C)cc(O)c(C(=O)Nc2cccc(Cl)c2)c1=O
The “hERG current change (%, negative = inhibition) at 10uM” value of the first is lower: -3.1% for the first, 19.6% for the second.

First: CC(C)c1c(O)nc(SCCN(C)C)[nH]c1=O.Cl
Second: COC(=O)CCn1[nH]c(=O)c2ccccc2c1=O
The “hERG current change (%, negative = inhibition) at 10uM” value of the first is lower: -1.68% for the first, 7.71% for the second.

First: CN(Cc1cccc(F)c1)C(=O)CN1CCN(S(=O)(=O)c2ccc3c(c2)OCCCO3)CC1
Second: CSc1ccc(S(=O)(=O)N2CCC(C(=O)N3CCc4ccccc4C3)CC2)cc1
The “hERG current change (%, negative = inhibition) at 10uM” value of the first is higher: 1.02% for the first, -20% for the second.

First: Cn1c(=O)c2sc3c(c2n(CC(=O)Nc2ccccc2)c1=O)COC(C)(C)C3
Second: CC(=O)c1ccc(NC(=O)CSc2nnc(NC(=O)C3CC3)s2)cc1
The “hERG current change (%, negative = inhibition) at 10uM” value of the first is higher: 16.9% for the first, -0.703% for the second.

First: COc1ccc(-n2c(SCC(=O)N/N=C/c3ccccc3OCC(=O)O)nc3ccccc3c2=O)cc1
Second: Nn1c(Nc2ccccc2)nc2ccccc2c1=O
The “hERG current change (%, negative = inhibition) at 10uM” value of the first is lower: 5.92% for the first, 14.2% for the second.

First: CC1CCCN(CC(=O)Nc2cccc([N+](=O)[O-])c2)C1 (centres unmarked)
Second: CCCOC(=O)c1cccc(NC(=O)C(C)(C)C)c1
The “hERG current change (%, negative = inhibition) at 10uM” value of the first is lower: -16.7% for the first, 1.43% for the second.

Compared with `COc1cc(C(=O)NCC(=O)N/N=C\C(C)=C/c2ccccc2)cc(OC)c1OC`, `COc1ccccc1CNC(=O)COC(=O)C1=COCCO1` is higher in “hERG current change (%, negative = inhibition) at 10uM” value: 2.8% for the first, 8.86% for the second.

Going from `Cc1sc2nc(N)sc2c1C` to `Cc1cc(NC(=O)c2sc(Nc3ccc(F)cc3)nc2N)no1`, the “hERG current change (%, negative = inhibition) at 10uM” value rises from -1.94% to 20%.

First: O=c1c2cc(N3CCOCC3)ccc2[nH]c(=S)n1CC1CCCO1 (centres unmarked)
Second: CCOC(=O)C1CCCN(C2CC(=O)N(c3ccc(N4C(=O)CC(N5CCCC(C(=O)OCC)C5)C4=O)cc3)C2=O)C1 (centres unmarked)
The “hERG current change (%, negative = inhibition) at 10uM” value of the first is lower: -17.4% for the first, -4.62% for the second.

Compared with `Cc1ccccc1NC(=O)/C(C#N)=C\c1cn(CC(=O)O)c2ccccc12`, `O=C(CN1CCC(Cc2ccccc2)CC1)NC(=O)NCc1ccccc1` is lower in “hERG current change (%, negative = inhibition) at 10uM” value: 15% for the first, 2.56% for the second.

First: Cc1ccc(-n2c(Cl)c(Cl)[nH]c(=O)c2=O)cc1
Second: CSc1nsc(SC)c1C(=O)N1CCN(S(=O)(=O)c2ccc(C)cc2)C1C (centres unmarked)
The “hERG current change (%, negative = inhibition) at 10uM” value of the first is higher: -14.1% for the first, -29.9% for the second.

Going from `CN1CCN(C(=O)N2c3ccccc3C=Cc3ccccc32)CC1` to `OC(CN1CCN(C(c2ccccc2)c2ccccc2)CC1)c1ccc(Br)cc1` (centres unmarked), the “hERG current change (%, negative = inhibition) at 10uM” value falls from -5.03% to -28.8%.

Compared with `C[C@@H](C(=O)NCc1ccccc1)[C@@H]1C[C@@]1(C)[C@@H](NC(=O)OCc1ccccc1)c1ccccc1`, `O=C(CCSc1nc(-c2ccco2)cc(C(F)(F)F)n1)NCCc1ccccc1` is higher in “hERG current change (%, negative = inhibition) at 10uM” value: -23.7% for the first, 1.92% for the second.

First: COc1ccc(NC(=O)c2cc3cc(OC)ccc3oc2=N)cc1
Second: CC(=O)Nc1ccc(C(=O)NNC(=O)c2cccc(C)c2)cc1
The “hERG current change (%, negative = inhibition) at 10uM” value of the first is higher: 13.9% for the first, -1.91% for the second.

First: CCCCNC(=O)COC(=O)c1ccc(F)cc1Cl
Second: Cc1cc(C(=O)NNC(=S)NC(=O)/C=C/c2ccccc2Cl)n[nH]1
The “hERG current change (%, negative = inhibition) at 10uM” value of the first is lower: -10.8% for the first, -8.91% for the second.

First: CCCOCc1ccc(O)c2ncccc12
Second: CCOc1c(C)cc(-c2[nH+]cccc2O)cc1C.[Cl-]
The “hERG current change (%, negative = inhibition) at 10uM” value of the first is higher: 0.502% for the first, -7.49% for the second.

First: O=C(CSc1nnc2ccc(-c3ccccn3)nn12)Nc1ccc(F)cc1F
Second: Cc1cccc(OCCNC(=O)c2cccc(Oc3ccc(C(F)(F)F)cc3[N+](=O)[O-])c2)c1
The “hERG current change (%, negative = inhibition) at 10uM” value of the first is lower: -18% for the first, 4.98% for the second.

First: Cc1ccc(NC(=O)Nn2cnnc2)cc1Cl
Second: CC(NC(=O)c1ccc(Br)cc1)C(=O)NC1=NCCS1 (centres unmarked)
The “hERG current change (%, negative = inhibition) at 10uM” value of the first is lower: 6.96% for the first, 15.9% for the second.

With `Cl.O=C(COc1ccc(Cl)cc1)N(c1ccccc1Cl)C1CN2CCC1CC2` (centres unmarked) the “hERG current change (%, negative = inhibition) at 10uM” value was -50.5%.
